Consider 42 sequences from publication PMC7819943, “Rice protein-binding microarrays: a tool to detect cis-acting elements near promoter regions in rice”.

The list shows a part of the results.

The test deals with T1, OsWOX13 (Oryza sativa, UniProt Q5QMM3 1-267).
T1 sequence: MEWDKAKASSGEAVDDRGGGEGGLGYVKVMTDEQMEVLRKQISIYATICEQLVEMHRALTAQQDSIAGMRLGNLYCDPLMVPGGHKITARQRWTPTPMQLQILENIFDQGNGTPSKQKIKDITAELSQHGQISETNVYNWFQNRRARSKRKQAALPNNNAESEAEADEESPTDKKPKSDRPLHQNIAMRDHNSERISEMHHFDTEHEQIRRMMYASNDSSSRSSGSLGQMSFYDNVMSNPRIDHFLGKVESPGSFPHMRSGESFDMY
As to the kind of experiment: protein-binding microarray (RPBM); PBS, 2% BSA, 51.3 ng/ul salmon testes DNA, 50 uM zinc acetate, 200 nM TF, 25 C, 1 h; high values mean tight binding. Conditions: protein: recombinant; tags: N-terminal polyhistidine and DsRed monomer fusion (pET32a); label: CyDye5-dUTP incorporated in the synthesized complementary strand; 3' TTTTT single-stranded linker to array surface; dsDNA, one strand shown. In short, it runs like this:
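Ni–NTA purification followed expression in E. coli BL21-CodonPlus of transcription factors fused N-terminally to a polyhistidine tag and DsRed. At 200 nM in PBS with 2% BSA, salmon testes DNA and 50 µM zinc acetate, the protein was incubated for 1 h at 25 °C with a custom Agilent array that had been primer-extended with Cy5-dUTP and blocked with 2% BSA. After washing, the array was read on an Axon 4000B scanner. The binding signal is per-feature fluorescence intensity in arbitrary units.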
For “GTGTGAAATTGACATGTGGGTCCCATGGGTATTATTATTACGGAGTCACCTAGTGCAG”, the binding signal is 8480 fluorescence intensity (a.u.).

Turning to “ATCCCAAAATAATGTGTTCGGGTGGGCGGGCGGGAAATATCGGAGTCACCTAGTGCAG”, the binding signal is 4570 fluorescence intensity (a.u.).

With “TAAAATAATTAATACTTAATTATTATATGCTAATAGTTTACGGAGTCACCTAGTGCAG”, the binding signal was 31900 fluorescence intensity (a.u.).

On to “TGACTACATCACCGTGCATTTAATTACTTTCTGTACTTCACGGAGTCACCTAGTGCAG”, for which the binding signal was 4510 fluorescence intensity (a.u.).

For the sequence “TTTGATAAAATAGATTAATACGATATATACCACTCCACAACGGAGTCACCTAGTGCAG”, the binding signal is 16300 fluorescence intensity (a.u.).

In the case of “AATGATGATTGATGGGTCATGGCACAAGGACGCTAAACCGCGGAGTCACCTAGTGCAG”, the binding signal was 40700 fluorescence intensity (a.u.).

As for “TTAGTAATTTGTTGCCTCCTTAAGCAAATTTGAATTGGATCGGAGTCACCTAGTGCAG”, the binding signal is 10200 fluorescence intensity (a.u.).

For the sequence “TTTAATTAGATTCATCATGAAATATGTCTTTATTGCATTTCGGAGTCACCTAGTGCAG”, the binding signal is 32300 fluorescence intensity (a.u.).

In the case of “TATGTTGCCTATCAATCAAATAATAATTAGCTGTAAATACCGGAGTCACCTAGTGCAG”, the binding signal was 33800 fluorescence intensity (a.u.).

Turning to “TAATCTTAAATTTATAATTTAAAGATGTTTTCATCGTAATCGGAGTCACCTAGTGCAG”, the binding signal is 8740 fluorescence intensity (a.u.).

With “GACTAATTAATAATTAGTTAATTGACTAATCAGGATAATTCGGAGTCACCTAGTGCAG”, the binding signal is 46800 fluorescence intensity (a.u.).

With “TGAGAGTGATTGGGGTTTCACATCTTTTATGCCTTTGAGTCGGAGTCACCTAGTGCAG”, the binding signal is 45200 fluorescence intensity (a.u.).

Consider “TCTGATGGACTTTTCGCTCCTCCCTCTTGTTATAAATAGGCGGAGTCACCTAGTGCAG”, for which the binding signal was 13600 fluorescence intensity (a.u.).

In the case of “TTATCAATCTACATCGTTATAATTTAGTTCCACCGTAATTCGGAGTCACCTAGTGCAG”, the binding signal is 19800 fluorescence intensity (a.u.).

“ATAAATATTAATTAAACTTTAAAAGAAGAAAATCTCATAGCGGAGTCACCTAGTGCAG”: the binding signal was 13700 fluorescence intensity (a.u.).

In the case of “GATCTGCAATTGGACCATGATTGTTGTCTTTGGTCATCAGCGGAGTCACCTAGTGCAG”, the binding signal was 5900 fluorescence intensity (a.u.).

In the case of “AGTGTAATTAATGGGCTTCTTTTCGATGGCTCTTGTTGGGCGGAGTCACCTAGTGCAG”, the binding signal is 22600 fluorescence intensity (a.u.).

As for “AAAACTTAATTAAGCACACGTTACTACCATCTCATTTTGCCGGAGTCACCTAGTGCAG”, the binding signal was 25500 fluorescence intensity (a.u.).

For “ACTTAGATGATATGCAATAAACAGGTGGACATCCACTCGACGGAGTCACCTAGTGCAG”, the binding signal was 9990 fluorescence intensity (a.u.).

“CGTCCCATCACTAATCTGATAAATCTTGCAGAGATTAACGCGGAGTCACCTAGTGCAG”: the binding signal is 4410 fluorescence intensity (a.u.).

For the sequence “AATAACTAATTGTACATATTACGACTAATTTGCGAGATGACGGAGTCACCTAGTGCAG”, the binding signal is 35000 fluorescence intensity (a.u.).

Turning to “TTGTAATTGTCGAATCGTCTCTAGATTTATATATATAAAGCGGAGTCACCTAGTGCAG”, the binding signal is 17700 fluorescence intensity (a.u.).

Consider “TTTATTCCGAATATTAATTAATCTCGTATTGGGTTCTTATCGGAGTCACCTAGTGCAG”, for which the binding signal was 5880 fluorescence intensity (a.u.).

Regarding “ACACTAATTACAAAACCCATTTCATAACATTGGACTAATTCGGAGTCACCTAGTGCAG”, the binding signal was 28900 fluorescence intensity (a.u.).

For “GCGCAGGCAATCAATGGCGGCAGGGCAGAGTGACGAGGAGCGGAGTCACCTAGTGCAG”, the binding signal was 3190 fluorescence intensity (a.u.).

Consider “ATTATTATATAATAATTTATTTGTCTTGGTACGCTGTTGGCGGAGTCACCTAGTGCAG”, for which the binding signal was 5830 fluorescence intensity (a.u.).

Regarding “CAGCTGTTCTAATGATTTGAGATATATCAAACTTGTCAAACGGAGTCACCTAGTGCAG”, the binding signal was 3250 fluorescence intensity (a.u.).

On to “TACCCAATTCAAATTTGAATTTGAATTATATCTGATTCAACGGAGTCACCTAGTGCAG”, for which the binding signal is 4680 fluorescence intensity (a.u.).

Turning to “TTGATGTGATAGAAAAGTTGGAATTTCGAAGAAATAGTTTCGGAGTCACCTAGTGCAG”, the binding signal was 14900 fluorescence intensity (a.u.).

In the case of “AGGGCAATTGACAAACAGGTGGTTCCCGGTTTCTGGCCCACGGAGTCACCTAGTGCAG”, the binding signal is 11100 fluorescence intensity (a.u.).

Consider “GGGGTGAATAACAAATTAACCAACGCCATGAGCATTCATGCGGAGTCACCTAGTGCAG”, for which the binding signal is 4190 fluorescence intensity (a.u.).

“AAATCAATAATTAAATATAGTTTCATAATATATTTATCTTCGGAGTCACCTAGTGCAG”: the binding signal is 22700 fluorescence intensity (a.u.).

For “ATAAAACTGGGATTAAAACCACAGATTTCATAAGTTGAGGCGGAGTCACCTAGTGCAG”, the binding signal is 3690 fluorescence intensity (a.u.).

On to “ATCTTATAATTAAACCGTAAGTTCTTAACTCAAACCGACACGGAGTCACCTAGTGCAG”, for which the binding signal was 5740 fluorescence intensity (a.u.).

As for “AATTGACGTGATTTAAAATGCAACAAACGTGAAGTTAGCTCGGAGTCACCTAGTGCAG”, the binding signal is 21200 fluorescence intensity (a.u.).

As to “TGACTGAATTAAAGTCTGTAATTTCTTCAGATCTAGCCGTCGGAGTCACCTAGTGCAG”, the binding signal was 3660 fluorescence intensity (a.u.).

Take “TCAGTAAATCATATTTATTTATACTATCACTTCAACCATTCGGAGTCACCTAGTGCAG”: the binding signal was 3600 fluorescence intensity (a.u.).

As to “CTCCTAATTTACTTATGTTAAGCAGATTTTGTTGATAAATCGGAGTCACCTAGTGCAG”, the binding signal was 20800 fluorescence intensity (a.u.).

Consider “CAACTATTATATAAATTGGCTATTATATTAGCTATAGATGCGGAGTCACCTAGTGCAG”, for which the binding signal was 11400 fluorescence intensity (a.u.).

For the sequence “ATGATTAAAATTGATTAAGCCGTCGTCTCCCTCGTCTCCGCGGAGTCACCTAGTGCAG”, the binding signal was 46200 fluorescence intensity (a.u.).

On to “GTTGATTAATGATTAATTACATCGCAGACATGCCATTTTACGGAGTCACCTAGTGCAG”, for which the binding signal was 45400 fluorescence intensity (a.u.).

With “TAATTGTAATTATTATTCACAAGATGGTGTGGTAATATCCCGGAGTCACCTAGTGCAG”, the binding signal was 10300 fluorescence intensity (a.u.).
